Data on 172 sequences can be found in paper PMC6212790.

Some of the results follow. At the low end of the ranking the order means little.

The assay deals with T1, GST-Rok (full length) (UniProt O34857).
T1 sequence: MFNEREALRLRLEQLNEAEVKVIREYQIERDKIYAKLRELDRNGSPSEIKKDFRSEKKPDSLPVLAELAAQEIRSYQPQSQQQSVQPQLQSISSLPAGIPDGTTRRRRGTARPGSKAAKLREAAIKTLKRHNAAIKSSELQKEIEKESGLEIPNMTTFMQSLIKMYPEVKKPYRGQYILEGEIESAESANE
Kind of assay: protein binding microarray.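 Note: rank score from −0.5 (least bound) to 0.5 (best bound).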 The conditions noted are these: Rok is a gene silencer of Bacillus subtilis; high values mean tight binding; most listed sequences are background and not binding sites; double strand, one strand shown.
Sequence CCACTGCA had a binding signal of -0.0838 E-score. In turn, AGTACGAT returned a binding signal of 0.134 E-score.

The sequence AAATGGTG displayed a binding signal of -0.0649 E-score. ATAGTTTA registered a binding signal of 0.346 E-score.

AGCTCGTA registered a binding signal of -0.164 E-score. The same measure for CGCGGCCA: -0.306 E-score; for CGTGCGCC: -0.304 E-score. The same measure for GACGCACA: -0.339 E-score; for ATAGTGGG: 0.128 E-score. With ACGCGCCT the figure was -0.254 E-score. ATTTATGG gave a binding signal of 0.218 E-score.

As for ACCCAGCG, the binding signal was found to be 0.0259 E-score. The same measure for CTACGCGC: -0.112 E-score; for ACTAAACA: 0.0776 E-score; for AACATAAG: 0.23 E-score. The same measure for AGTACGGG: -0.14 E-score; for CGCCGTCA: -0.191 E-score; for CCTAGGCC: -0.185 E-score. With GTTGAGTA the figure was 0.0513 E-score.

ACCTTGTG came in with a binding signal of -0.104 E-score. With CCACAGGA the figure was 0.0328 E-score; with GCGACGGA, -0.218 E-score. In turn, CCAAGCTA displayed a binding signal of 0.16 E-score. With ATAGGCCG the figure was -0.147 E-score. With AGGGTTTG the figure was -0.158 E-score; with ACCTTAAG, 0.0261 E-score. Sequence CCGTTCCA had a binding signal of -0.0207 E-score. The sequence ACGCTCCT displayed a binding signal of -0.000812 E-score.

For ACATCAGA, the binding signal amounted to 0.0945 E-score. The same measure for CTGATCAA: -0.12 E-score.

Consider ATTTTGCG, for which the binding signal is 0.127 E-score. With AGTTTACA the figure was 0.115 E-score. CCTAGTTC came in with a binding signal of 0.0853 E-score. The sequence CTAGGTCA displayed a binding signal of -0.0595 E-score. The same measure for TACGACCA: -0.0634 E-score; for AGATAAGC: 0.122 E-score; for GCCTCAAA: -0.089 E-score. With CTATGATA the figure was 0.172 E-score. On to GTATTATA, for which the binding signal was 0.35 E-score. With ACAATCGC the figure was -0.0583 E-score. Regarding GGACATCC, the binding signal is -0.168 E-score. With AAAGAGAA the figure was -0.144 E-score; with ACCACCTC, -0.0897 E-score. The same measure for AACAGTGT: 0.116 E-score; for CAAAGCCC: -0.284 E-score.

AGCGCACG gave a binding signal of -0.149 E-score.

In turn, AAAGGACC gave a binding signal of -0.284 E-score. In the case of CAAGGCCG, the binding signal is -0.303 E-score. GCCTTGCA displayed a binding signal of -0.276 E-score.

In turn, CCAGGCAG yielded a binding signal of -0.238 E-score.

ACCGAGGT came in with a binding signal of 0.0218 E-score. Turning to CCTTCTTA, the binding signal turned out to be 0.0503 E-score.

As for AGGAACAC, the binding signal was -0.213 E-score. CACACTGA gave a binding signal of -0.128 E-score. Take ACATTGGG: the binding signal was 0.0748 E-score. The same measure for ACTTGTGG: -0.084 E-score; for TGATCACA: -0.0801 E-score; for GCAGAATA: 0.151 E-score. With ACCTAACA the figure was 0.207 E-score; with ACTACACG, 0.301 E-score. The same measure for AGGTTCCG: -0.205 E-score; for ACTCAGAC: -0.0928 E-score.

As for GTAGACGA, the binding signal is 0.101 E-score.

ATTGGCCC showed a binding signal of -0.208 E-score. With CTAAACAA the figure was -0.161 E-score. With AAACTCAG the figure was 0.0227 E-score; with CTGAACGC, -0.181 E-score; with AGGCATGA, -0.0258 E-score. Sequence GAATGTAA had a binding signal of 0.21 E-score. With CTACGGAA the figure was 0.156 E-score; with TAATTTCA, 0.273 E-score; with CAAGGTCC, -0.251 E-score. With CCTTGGCA the figure was -0.21 E-score; with CTGCACTC, -0.166 E-score. The sequence CACGGCAA showed a binding signal of 0.154 E-score.

Sequence CATCGACA had a binding signal of 0.0503 E-score.

On to AGGGTGAG, for which the binding signal was -0.19 E-score.

On to CTAGACAC, for which the binding signal is 0.0291 E-score. With CTAAACTA the figure was 0.336 E-score. With ACTGAGGG the figure was -0.231 E-score; with CTGTTCCC, -0.158 E-score; with GCAAGTGA, 0.0069 E-score. With AAGTTCGC the figure was 0.139 E-score; with AGCGATTC, -0.0838 E-score; with AATAGGCG, -0.147 E-score. CACCATTA gave a binding signal of 0.0427 E-score. The same measure for CCATAGGC: -0.214 E-score.

In turn, GTATGAAA registered a binding signal of 0.127 E-score. In the case of CCGGACAA, the binding signal is -0.212 E-score. The same measure for AACCTATG: 0.00792 E-score; for AAAGATGT: -0.00554 E-score. AAAAAACA returned a binding signal of 0.109 E-score. With AGTTTCAA the figure was 0.0274 E-score; with GAAACGCC, -0.216 E-score; with ATATTTAA, 0.387 E-score. Sequence CAGCGGTC had a binding signal of -0.296 E-score. The same measure for GACCTCCC: -0.366 E-score; for GCTAACAC: -0.0118 E-score; for GAGCACAA: -0.121 E-score. With AGATGGGG the figure was -0.161 E-score. Take AAGTCTGA: the binding signal was -0.121 E-score. The same measure for AATTAACG: 0.0615 E-score; for GTCTGCTA: 0.0243 E-score; for CAGCGCAA: 0.0886 E-score. Take AGGGGCAA: the binding signal was -0.338 E-score. The same measure for CGGAGGAC: -0.293 E-score. With GAGAGGCC the figure was -0.345 E-score; with ATGGTGAA, 0.136 E-score. The same measure for ATTCCCAA: -0.059 E-score; for CGAATTCC: -0.0872 E-score; for CATGAGTA: 0.253 E-score. As to CGTTATCC, the binding signal is -0.111 E-score. CCTATACG: the binding signal is -0.0834 E-score. In the case of TATGCCGA, the binding signal is -0.13 E-score. The same measure for CGTGGGAG: -0.291 E-score; for GTGCAAAC: -0.0482 E-score.

CAAGACAC returned a binding signal of -0.281 E-score. With AGGTGTTC the figure was -0.0893 E-score.

The sequence CCGCCGTA had a binding signal of -0.238 E-score. As for AAAATCGG, the binding signal is -0.106 E-score. The same measure for CTATGTGA: 0.103 E-score; for ATCATCTC: -0.0777 E-score; for ATGAGCGA: -0.0103 E-score. The sequence TGGGGTAA showed a binding signal of -0.0712 E-score. The same measure for CATGCGCC: -0.332 E-score; for AGTACCGG: 0.103 E-score.

As to GATCTCAC, the binding signal is -0.0224 E-score. With CGTAGGCC the figure was -0.17 E-score; with CTCGAATA, 0.185 E-score; with GGGGTGTA, -0.097 E-score. The same measure for CAAGTGGC: 0.00246 E-score; for CGCGTAAG: -0.0783 E-score. With GCTCCTTA the figure was -0.176 E-score; with CATTGTCC, -0.183 E-score. On to CAGCCAGC, for which the binding signal was -0.245 E-score. As to CCCTCGAG, the binding signal was -0.22 E-score.

Consider ATTAAACA, for which the binding signal is -0.0504 E-score.

CATACCGA: the binding signal was found to be 0.0564 E-score. With CCTCGCCA the figure was -0.301 E-score. The same measure for ACTACCCT: 0.133 E-score; for AACCCATA: 0.207 E-score. With CCTCCAAA the figure was -0.168 E-score; with CCTGACTA, -0.0238 E-score. The sequence ATGCTGGC came in with a binding signal of -0.00906 E-score. The sequence TCACATGA had a binding signal of 0.0464 E-score. The same measure for GGATCTCA: -0.0769 E-score; for AGTAATTG: 0.29 E-score. The same measure for CGATAGTA: 0.384 E-score; for AAGAAGAA: -0.237 E-score. The same measure for ACACTGGT: -0.0469 E-score; for TCACTCGA: -0.0802 E-score. The sequence AGGGACGA showed a binding signal of -0.238 E-score. Sequence ACTGCAAA gave a binding signal of -0.0118 E-score.

As to CATCTGAG, the binding signal was -0.0222 E-score. With ACAGGACT the figure was -0.175 E-score. With AACCGCTA the figure was 0.0839 E-score; with GCGGGTCA, -0.239 E-score; with CCGATTAC, -0.0661 E-score. ACCGTGAA came in with a binding signal of -0.000381 E-score.

GGGACACA had a binding signal of -0.236 E-score. With ATGCGTGC the figure was -0.243 E-score; with ACGGGGCC, -0.148 E-score. The same measure for AAATGGGT: 0.263 E-score.

AATAGTAC returned a binding signal of 0.302 E-score. With CCCTAACG the figure was -0.274 E-score; with GCGCACGA, -0.168 E-score; with CCGTTTCC, -0.204 E-score. The same measure for AGTGGTCA: -0.0224 E-score; for CCCGATTA: -0.0137 E-score. The same measure for CGGGATAA: 0.0383 E-score; for ATGAATCC: 0.0418 E-score.

The sequence ATGTTCTC came in with a binding signal of 0.0524 E-score.
